Measured values taken from the supplement of paper PMC9151546.
Most values come without repeats; read them as rough.

Assays:
CHO-K1 [1] = assay: micronucleus frequency (% of nucleated events); higher = more micronuclei (genotoxic)
CHO-K1 [2] = assay: relative survival (nuclei to bead ratio vs DMSO control) (% of vehicle control); higher = more surviving cells
Procedure: (§1)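 Flow-cytometric in vitro micronucleus assay (Litron MicroFlow) in CHO-K1 cells in 96-well plates, 19 concentrations (4.5-200 µM, n=1 per concentration). Without S9, cells were exposed for 24 h and sampled at 48 h. With Aroclor 1254-induced rat liver S9, cells were exposed for 3-4 h and sampled at 27-28 h. Read-outs are %MN and %hypodiploid nuclei relative to nucleated events, and relative survival as the nuclei-to-bead ratio versus the 1% DMSO vehicle control (x100).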

CHO-K1 [3] = assay: hypodiploid nuclei frequency (% of nucleated events); higher = more hypodiploid events (aneugenic)
Procedure: as §1
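Wherever hypodiploid nuclei frequency (% of nucleated events) is given: hypodiploid nuclei gated on a flow cytometer with 488 nm excitation after SYTOX Green staining, cultures at 37 °C, positive controls vinblastine without S9 and cyclophosphamide with S9.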
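Wherever micronucleus frequency (% of nucleated events) is given: cells lysed with nuclei stained by SYTOX Green, then micronucleus-gated events counted against nucleated events by flow cytometry with 488 nm excitation.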
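Wherever relative survival (nuclei to bead ratio vs DMSO control) is given: Lysed-cell nuclei stained with SYTOX Green and counted against counting beads by flow cytometry at 488 nm excitation, with vinblastine (no S9) and cyclophosphamide (plus S9) as positive controls.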

CCOC(=O)c1ccc(O)cc1 [Ethylparaben]
Conditions | hypodiploid nuclei frequency, CHO-K1 [3] [%] | micronucleus frequency, CHO-K1 [1] [%] | relative survival, CHO-K1 [2]
concentration: 4.5 (µM), S9 metabolic activation: with S9, exposure time: 3-4 hours | 0.22 | 1.32 | 90.2
concentration: 4.5 (µM), S9 metabolic activation: without S9, exposure time: 24 hours | 0.54 | 1.56 | 116
concentration: 5.63 (µM), S9 metabolic activation: with S9, exposure time: 3-4 hours | 0.32 | 1.62 | 88.5
concentration: 5.63 (µM), S9 metabolic activation: without S9, exposure time: 24 hours | 0.64 | 1.52 | 95.5
concentration: 7.04 (µM), S9 metabolic activation: with S9, exposure time: 3-4 hours | 0.4 | 1.9 | 82.7
concentration: 7.04 (µM), S9 metabolic activation: without S9, exposure time: 24 hours | 0.64 | 1.52 | 118
concentration: 8.8 (µM), S9 metabolic activation: with S9, exposure time: 3-4 hours | 0.34 | 1.82 | 109
concentration: 8.8 (µM), S9 metabolic activation: without S9, exposure time: 24 hours | 0.5 | 1.5 | 111
concentration: 11 (µM), S9 metabolic activation: with S9, exposure time: 3-4 hours | 0.26 | 1.64 | 92.6
concentration: 11 (µM), S9 metabolic activation: without S9, exposure time: 24 hours | 0.54 | 1.96 | 131
concentration: 13.7 (µM), S9 metabolic activation: with S9, exposure time: 3-4 hours | 0.34 | 1.98 | 107
concentration: 13.7 (µM), S9 metabolic activation: without S9, exposure time: 24 hours | 0.5 | 1.78 | 138
concentration: 17.2 (µM), S9 metabolic activation: with S9, exposure time: 3-4 hours | 0.44 | 2.12 | 111
concentration: 17.2 (µM), S9 metabolic activation: without S9, exposure time: 24 hours | 0.8 | 1.82 | 129
concentration: 21.5 (µM), S9 metabolic activation: with S9, exposure time: 3-4 hours | 0.32 | 1.28 | 119
concentration: 21.5 (µM), S9 metabolic activation: without S9, exposure time: 24 hours | 0.7 | 1.44 | 123
concentration: 26.8 (µM), S9 metabolic activation: with S9, exposure time: 3-4 hours | 0.46 | 1.18 | 91.8
concentration: 26.8 (µM), S9 metabolic activation: without S9, exposure time: 24 hours | 0.58 | 1.98 | 107
concentration: 33.6 (µM), S9 metabolic activation: with S9, exposure time: 3-4 hours | 0.2 | 1.2 | 90.2
concentration: 33.6 (µM), S9 metabolic activation: without S9, exposure time: 24 hours | 0.46 | 1.38 | 101
concentration: 41.9 (µM), S9 metabolic activation: with S9, exposure time: 3-4 hours | 0.32 | 1.1 | 94.7
concentration: 41.9 (µM), S9 metabolic activation: without S9, exposure time: 24 hours | 0.52 | 1.88 | 97.1
concentration: 52.4 (µM), S9 metabolic activation: with S9, exposure time: 3-4 hours | 0.44 | 1.66 | 104
concentration: 52.4 (µM), S9 metabolic activation: without S9, exposure time: 24 hours | 0.96 | 2.5 | 107
concentration: 65.5 (µM), S9 metabolic activation: with S9, exposure time: 3-4 hours | 0.34 | 1.26 | 99.1
concentration: 65.5 (µM), S9 metabolic activation: without S9, exposure time: 24 hours | 0.78 | 2.46 | 109
concentration: 81.9 (µM), S9 metabolic activation: with S9, exposure time: 3-4 hours | 0.34 | 1.46 | 119
concentration: 81.9 (µM), S9 metabolic activation: without S9, exposure time: 24 hours | 0.74 | 1.84 | 117
concentration: 102 (µM), S9 metabolic activation: with S9, exposure time: 3-4 hours | 0.38 | 1.54 | 109
concentration: 102 (µM), S9 metabolic activation: without S9, exposure time: 24 hours | 0.72 | 2.08 | 101
concentration: 128 (µM), S9 metabolic activation: with S9, exposure time: 3-4 hours | 0.32 | 1.64 | 128
concentration: 128 (µM), S9 metabolic activation: without S9, exposure time: 24 hours | 1.1 | 1.96 | 116
concentration: 160 (µM), S9 metabolic activation: with S9, exposure time: 3-4 hours | 0.28 | 1.42 | 142
concentration: 160 (µM), S9 metabolic activation: without S9, exposure time: 24 hours | 1.02 | 2.16 | 90.3
concentration: 200 (µM), S9 metabolic activation: with S9, exposure time: 3-4 hours | 0.36 | 1.5 | 117
concentration: 200 (µM), S9 metabolic activation: without S9, exposure time: 24 hours | 1.26 | 2.16 | 95.5
